# Results as given in PubChem BioAssay AID588342 (National Center for Advancing Translational Sciences (NCATS), 2011).
# The campaign covered roughly 360,000 compounds. About 25,000 (6.9%) were called active. Inconclusive results, whose numbers are uncertain, are shown with a selection of clear calls. The call rests on the fitted dose curve; in most records, active means well fitted inhibition curve with a large enough effect; inconclusive means small, poorly fitted or top-dose-only effect; inactive means flat fitted curve, though single readings scatter. Where the call is inconclusive, the potency comes from a doubtful curve fit.
# Biological target: Luciferin 4-monooxygenase (Photinus pyralis) (UniProt P08659)
# Chain of UniProt P08659 (P08659 whole entry, looked up): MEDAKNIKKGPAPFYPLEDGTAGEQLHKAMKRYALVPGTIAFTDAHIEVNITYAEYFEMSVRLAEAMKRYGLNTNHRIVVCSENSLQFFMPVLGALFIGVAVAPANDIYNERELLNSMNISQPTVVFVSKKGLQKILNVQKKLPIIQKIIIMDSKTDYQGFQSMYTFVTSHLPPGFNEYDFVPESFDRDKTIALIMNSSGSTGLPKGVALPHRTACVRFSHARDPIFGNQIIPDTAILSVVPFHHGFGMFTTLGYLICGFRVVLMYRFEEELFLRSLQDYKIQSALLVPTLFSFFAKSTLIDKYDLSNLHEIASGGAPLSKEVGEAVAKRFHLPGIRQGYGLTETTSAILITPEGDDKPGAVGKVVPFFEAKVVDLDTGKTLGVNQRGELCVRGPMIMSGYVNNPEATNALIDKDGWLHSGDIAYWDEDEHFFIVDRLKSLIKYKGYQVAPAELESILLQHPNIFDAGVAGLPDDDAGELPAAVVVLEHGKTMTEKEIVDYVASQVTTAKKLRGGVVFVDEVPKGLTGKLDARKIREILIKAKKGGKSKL
# Test: qHTS profiling assay for firefly luciferase inhibitor/activator using purifed enzyme and Km concentrations of substrates (counterscreen for miR-21 project); further: nearly all actives have a fitted effect of over 55% in size;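 on activity change, negative = inhibition: plate controls were vehicle for no effect and reference inhibitor for full effect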
# Conditions: purified FLuc, luminescence inhibition; series mostly up to 57.5 µM; activity change, negative = inhibition: at the top concentration
# In short: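 Purified P. pyralis luciferase, 10 nM final, with Km-level 10 uM D-luciferin and 10 uM ATP in 50 mM Tris acetate pH 7.5, 10 mM Mg acetate, 0.01% Tween-20, 0.05% BSA; 6-point qHTS titration about 60 µM downward; luminescence read.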
# Potency means the concentration at half of the fitted maximal effect; tags describe the fitted curve by direction and shape.
SMILES,Potency,"activity change, negative = inhibition"
CCN1CCN(C(=S)Nc2ccc(Cl)cc2)CC1,"inconclusive: 21.3 µM [inhibitor, single point]",–
CC(C)(C)OC(=O)N/N=C/c1cccc([N+](=O)[O-])c1,active: 6.01 µM,–
O=C(/C=C/c1ccc(Cl)cc1)NCCc1ccccc1,"inconclusive: 15.1 µM [inhibitor, partial curve, poor fit]",–
COc1ccc(CN2CCNC(=O)C2CC(=O)N(C)C2CCOCC2)c(F)c1 (stereo not given),–,inactive: 0.894%
COc1ccc(Nc2cc(C)nc(N)n2)cc1,"inconclusive: 37.9 µM [inhibitor, partial curve, poor fit]",–
CCOC(=O)c1cc2c(=O)n3ccccc3nc2n(CCCOC)c1=NC(=O)c1c(-c2c(F)cccc2Cl)noc1C,–,inactive: -6%
CC(=O)c1cccc(NC(=O)c2sc3nc4n(c(=O)c3c2C)CCCCC4)c1,–,inactive: -16.7%
CC1=NN(c2ccccc2)C(=O)C1C(=O)c1cc([N+](=O)[O-])cc([N+](=O)[O-])c1 (stereo not given),"inconclusive: 16.9 µM [inhibitor, partial curve]",–
CC1CCc2nc(NC(=O)C3COc4ccccc4O3)sc2C1 (stereo not given),active: 0.536 µM,–
Cc1cc(SCC#N)n2nc(C)c(-c3ccccc3)c2n1,"inconclusive: 12 µM [inhibitor, partial curve, poor fit]",–
CC(C)c1nc(SCC(=O)Nc2cccc(C(=O)O)c2)c2c3c(sc2n1)CCCC3,"inconclusive: 33.8 µM [inhibitor, single point]",–
O=C(Cc1csc(N2CCOCC2)n1)N/N=C/c1ccc(O)c(O)c1O,"inconclusive: 16.9 µM [inhibitor, partial curve]",–
CC(C)Cc1cc(C(=O)N2CCC(N3CCC(C(=O)NC4CC4)CC3)CC2)n[nH]1,"inconclusive: 13.5 µM [inhibitor, partial curve]",–
COc1ccc(/C=C/C(=O)NCC(=O)N=Nc2c(O)[nH]c3ccc([N+](=O)[O-])cc23)cc1,"inconclusive: 37.9 µM [inhibitor, partial curve, poor fit]",–
O=S(=O)(Nc1ncccn1)c1ccc(NC(=S)N2CCN(Cc3ccc(F)cc3Cl)CC2)cc1,"inconclusive: 26.9 µM [inhibitor, single point]",–
O=C(COc1ccccc1[N+](=O)[O-])Nc1ccc(Br)cc1,active: 9.53 µM,–
COc1ccccc1Nc1ccc(C(=O)O)cc1[N+](=O)[O-],"inconclusive: 21.3 µM [inhibitor, partial curve, poor fit]",–
O=C(Nc1cccnc1)c1cc(-c2ccc(Cl)cc2Cl)on1,active: 0.379 µM,–
C/C(=N\Nc1nncc2ccccc12)c1ccc(C(C)(C)C)cc1,active: 7.57 µM,–
O=C(COC(=O)c1ccc2c(c1)OCCO2)Nc1cc(S(=O)(=O)N2CCOCC2)ccc1Cl,"inconclusive: 37.9 µM [inhibitor, partial curve, poor fit]",–
S=c1[nH]c(-c2ccccc2)cn1/N=C/c1ccncc1,"inconclusive: 37.9 µM [inhibitor, partial curve, poor fit]",–
O=C(O)CC1=C(Nc2ccccc2)C(=O)N(c2ccccc2)C1c1ccc(F)cc1 (stereo not given),"inconclusive: 23.9 µM [inhibitor, partial curve, poor fit]",–

SMILES,Potency,"activity change, negative = inhibition"
O=C(N/N=C/c1cc([N+](=O)[O-])ccc1O)c1ccc2c(c1)OCCO2,"inconclusive: 10.7 µM [inhibitor, partial curve]",–
Cc1ccccc1Cn1c(SCc2ccc(C(=O)N3CCCCC3)cc2)nc2ccncc21,"inconclusive: 21.3 µM [inhibitor, single point]",–
C=CCc1cc(/C=N/n2cnnc2)cc(OCC)c1O,"inconclusive: 30.1 µM [inhibitor, single point]",–
N#CC(C#N)=NNc1ccc(S(=O)(=O)N2CCCCC2)cc1,"inconclusive: 26.9 µM [inhibitor, single point]",–
COc1ccc2oc(=O)c(-c3cn4ccc(C)cc4n3)cc2c1,"inconclusive: 10.7 µM [inhibitor, partial curve, poor fit]",–
CC1CCCCN1C(=O)COC(=O)CNC(=O)c1ccc(Cl)cc1Cl (stereo not given),"inconclusive: 33.8 µM [inhibitor, partial curve, poor fit]",–
COc1ccc(CCNC(=O)c2cc(Nc3ccccc3)nc3ccccc23)cc1OC,"inconclusive: 21.3 µM [inhibitor, partial curve]",–
CNC(=O)NC(=O)COC(=O)CCCSc1nc2ccccc2s1,"inconclusive: 19 µM [inhibitor, partial curve]",–
COc1ccc(-n2nc3c(=O)[nH][nH]c3cc2=O)cc1,"inconclusive: 13.5 µM [inhibitor, partial curve, poor fit]",–
CCCCNC(=O)c1onc(CSc2ccccc2)c1C(=O)O,"inconclusive: 12 µM [inhibitor, partial curve]",–
O=C(CNC(=O)c1cccs1)N/N=C/c1ccc(Cl)cc1,"inconclusive: 19 µM [inhibitor, single point]",–
COc1ccc(Cn2c(-c3ccc(OC)cc3)nc3ccccc32)cc1,"inconclusive: 16.9 µM [inhibitor, partial curve]",–
CCOC(=O)C(=CN=C(N)Nc1nc2ccccc2o1)C(=O)OCC,–,inactive: -2.29%
NC(=O)c1c(NC(=O)CCCn2cnc([N+](=O)[O-])n2)sc2c1CCCC2,"inconclusive: 37.9 µM [inhibitor, single point]",–
Cc1cc(OC(=O)c2ccc3ccccc3c2)c([N+](=O)[O-])c(=O)[nH]1,"inconclusive: 30.1 µM [inhibitor, partial curve, poor fit]",–
Cc1nn(Cc2ccc(Cl)c(Cl)c2)c(C)c1NC(=O)c1cc(-c2ccc3c(c2)OCO3)on1,"inconclusive: 37.9 µM [inhibitor, partial curve, poor fit]",–
COCc1ccc(C(=O)N2CCC(CCC(=O)Nc3cccc(C)c3)CC2)s1,"inconclusive: 37.9 µM [inhibitor, partial curve, poor fit]",–
O=C(N[C@@H](Cc1c[nH]c2ccccc12)C(=O)NC1CC1)c1ccccc1Cl,"inconclusive: 26.9 µM [inhibitor, partial curve]",–
Cc1ccc(OCC(=O)N/N=C/c2cccn2C)cc1C,"inconclusive: 37.9 µM [inhibitor, single point]",–
CC(=O)c1ccc(NC(=O)C2CCN(S(=O)(=O)c3c(C)noc3/C=C/c3ccc(C)cc3)CC2)cc1,–,inactive: 1.25%
COc1ccc(/C=C/c2nnc(NC(=O)CC(C)C)s2)cc1,"inconclusive: 6.75 µM [inhibitor, partial curve, poor fit]",–
O=C(Nc1nncs1)c1ccc2c(c1)OCO2,active: 15.1 µM,–

SMILES,Potency,"activity change, negative = inhibition"
COc1ccc(CNC(=O)CN2C(=O)COc3ccccc32)c(OC)c1,–,inactive: -0.723%
OCCNc1nc(Nc2cccc(O)c2)nc2ccccc12,"inconclusive: 37.9 µM [inhibitor, single point]",–
CCN(CC)S(=O)(=O)c1ccc(NC(=O)CO/N=C(\N)c2ccccc2)cc1,–,inactive: -8.08%
CCOc1cc(/C=N/NC(=O)c2cc3c(ccc4ccccc43)o2)ccc1O,"inconclusive: 3.38 µM [inhibitor, partial curve, poor fit]",–
CC(=O)n1c2c(c3ccccc31)OC(N)=C(C#N)C2c1ccc(C(C)C)cc1 (stereo not given),"inconclusive: 37.9 µM [inhibitor, single point]",–
COc1ccc(C(=O)Nc2ccccc2C(=O)N2CCN(c3ccccc3)CC2)cc1,"inconclusive: 21.3 µM [inhibitor, single point]",–
Cc1ccc(NC(=O)c2cc(-c3ccccc3)n[nH]2)cc1,"inconclusive: 2.69 µM [inhibitor, full curve]",–
COCCCNC(=O)CCc1c(C)nc2c(c(C)nn2-c2ccc(C)cc2)c1C,–,inactive: -0.373%
CCCCN(C(=O)C1CCCC1)C1CCS(=O)(=O)C1 (stereo not given),–,inactive: -0.324%
COc1ccc(Cl)cc1C(=O)Nc1nc2ccccc2[nH]1,active: 0.0849 µM,–
COc1ccc(NC(=O)CN(C)C(=O)c2ccc(COc3ccccc3)o2)cc1,–,inactive: 1.28%
O=C(NC(=S)Nc1ccccc1)c1csnn1,"inconclusive: 23.9 µM [inhibitor, partial curve]",–
Cc1occc1C(=O)N/N=C/C=C/c1ccccc1[N+](=O)[O-],"inconclusive: 37.9 µM [inhibitor, partial curve, poor fit]",–
CCn1nc(C)c2c(-c3ccccc3)cc(=O)n(C(C)C(=O)Nc3cc(C)ccc3C)c21 (stereo not given),–,inactive: -9.67%
COc1ccc(-c2ccc(NS(=O)(=O)c3cc(C)c(C)cc3C)cc2)nn1,"inconclusive: 37.9 µM [inhibitor, partial curve, poor fit]",–
CC1(C)CN(c2ccc(N3CC(C)(C)C3=O)cc2)C1=O,"inconclusive: 30.1 µM [inhibitor, single point]",–
Clc1ccc(CCNC(c2ccc(Cl)cc2)c2nnc(-c3ccccc3)o2)cc1 (stereo not given),"inconclusive: 26.9 µM [inhibitor, single point]",–
CC(=O)c1ccc(OCc2cc(C(=O)NCCc3ccc(Cl)cc3)no2)cc1,"inconclusive: 26.9 µM [inhibitor, single point]",–
COc1ccc(N2CCN(C(=O)C(C)n3nc(C)c4sc5ccccc5c4c3=O)CC2)cc1 (stereo not given),"inconclusive: 23.9 µM [inhibitor, partial curve]",–
COc1cccc(N2C(=O)/C(=C\c3cccs3)NC2=S)c1,"inconclusive: 16.9 µM [inhibitor, partial curve]",–
COc1ccc(S(=O)(=O)N2CCOCC2)cc1NS(=O)(=O)/C=C/c1ccccc1,"inconclusive: 15.1 µM [inhibitor, partial curve, poor fit]",–
